Among the data in the supplement of paper PMC9446081 are relative growth values, retold here.

SMILES strings stand for the structures. Hit rate of the full screen: of about 39,000 compounds, about 220 (0.56%) showed activity. This is one part of the list.
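Further: static incubation at 37 °C against the wild-type strain, values averaged over two biological replicates.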

In the experiment the test system is Escherichia coli K-12 BW25113. Kind of experiment: relative growth (OD600 normalised to plate interquartile mean) (fraction); higher = less growth inhibition, active = 0.2 or less. The following applies: 50 µM; LB; incubation time: overnight (16-24 h).
As for `COc1ccc(NC(=O)N(C)C[C@H]2OCCCC[C@H](C)Oc3ccc(NC(=O)Nc4cccc5ccccc45)cc3C(=O)N([C@H](C)CO)C[C@@H]2C)cc1`, the relative growth was inactive: 0.991.

Consider `C[C@@H]1CN([C@H](C)CO)C(=O)c2cc(NC(=O)Nc3ccccc3)ccc2O[C@@H]1CN(C)Cc1ccc(Cl)c(Cl)c1`, for which the relative growth was inactive: 1.02.

As for `C[C@@H]1CN([C@H](C)CO)C(=O)c2cccc(NC(=O)c3ccc(-c4nccs4)cc3)c2O[C@@H]1CN(C)S(=O)(=O)c1cn(C)cn1`, the relative growth is inactive: 1.03.

With `C[C@H]1CN([C@@H](C)CO)C(=O)c2cc(NC(=O)CCCN(C)C)ccc2O[C@@H]1CN(C)S(=O)(=O)c1cn(C)cn1`, the relative growth is inactive: 0.99.

On to `O=[N+]([O-])c1cc(N(CCO)CCO)ccc1NCCO`, for which the relative growth is inactive: 1.06.

As for `C[C@@H]1CCCCO[C@@H](CN(C)S(=O)(=O)c2ccc(Cl)cc2)[C@@H](C)CN([C@@H](C)CO)C(=O)c2cc(NC(=O)Nc3ccccc3)ccc2O1`, the relative growth was inactive: 1.01.

In the case of `CC(=O)N1CCN(C)CC1`, the relative growth is inactive: 1.01.

For the compound `C[C@@H]1CN([C@@H](C)CO)C(=O)c2cc(NC(=O)Cn3cnnn3)ccc2O[C@@H]1CN(C)Cc1ccc(C(=O)Nc2ccccc2N)cc1`, the relative growth was inactive: 1.04.

Regarding `C[C@H]1CN([C@@H](C)CO)C(=O)CCCn2cc(nn2)CO[C@@H]1CN(C)C(=O)Nc1cccc(Oc2ccccn2)c1`, the relative growth is inactive: 1.02.

Turning to `C[C@H](CO)N1C[C@H](C)[C@H](CN(C)C(=O)Cc2ccccc2)OCCCC[C@H](C)Oc2ccc(NS(=O)(=O)c3ccc(F)cc3)cc2C1=O`, the relative growth was inactive: 0.977.

In the case of `C[C@@H]1CCCCO[C@@H](CN(C)Cc2ccc3c(c2)OCO3)[C@H](C)CN([C@H](C)CO)C(=O)c2cc(NC(=O)c3ccccc3)ccc2O1`, the relative growth is inactive: 0.977.

With `C[C@@H]1CN([C@H](C)CO)C(=O)c2cccc(NC(=O)c3nc4ccccc4s3)c2O[C@@H]1CN(C)Cc1ccc(C(=O)Nc2ccccc2N)cc1`, the relative growth was inactive: 1.06.

`NC[C@@H]1CC(=O)N(Cc2ccccc2)C1`: the relative growth is inactive: 0.976.

Regarding `COc1c(Cl)c(C)c(C(=O)Oc2cc(C)c(C(=O)O)c(O)c2)c(O)c1Cl`, the relative growth was inactive: 1.11.

In the case of `C[C@@H]1CN([C@H](C)CO)C(=O)Cc2cc(NS(=O)(=O)c3ccccc3)ccc2O[C@@H]1CN(C)Cc1ccc(C(=O)O)cc1`, the relative growth is inactive: 0.983.

For the compound `C[C@@H]1CN([C@H](C)CO)C(=O)c2cccc(NC(=O)C3CC3)c2O[C@@H]1CN(C)Cc1ccc(Oc2ccccc2)cc1`, the relative growth is inactive: 1.01.

In the case of `O=C(C[C@@H]1C[C@@H]2c3cc(NC(=O)C4CCOCC4)ccc3O[C@@H]2[C@@H](CO)O1)NCCN1CCCCC1`, the relative growth was inactive: 0.998.

On to `CC1(C)OC(=O)C2(C(=O)O1)[C@@H](c1ccc(-c3ccc(Br)cc3)cc1)CC(=O)C[C@H]2c1ccccc1`, for which the relative growth was inactive: 0.975.

As for `C[C@H](CO)N1C[C@H](C)[C@H](CN(C)CC2CCCCC2)Oc2ccc(NC(=O)Nc3ccc(C(F)(F)F)cc3)cc2CC1=O`, the relative growth was inactive: 0.983.

For `C[C@@H]1CN([C@@H](C)CO)S(=O)(=O)c2ccc(-c3cncnc3)cc2O[C@H]1CN(C)C(=O)Cc1cccnc1`, the relative growth is inactive: 0.98.

Take `COC(=O)Cc1cc(=O)n(-c2ccccc2)[nH]1`: the relative growth was inactive: 1.04.

For the compound `COc1ccc2c3c(n(c2c1)C)[C@@H](CO)N(C[C@]13CCN(CC1)S(=O)(=O)c1cn(cn1)C)C(=O)Nc1ccc(cc1)F`, the relative growth was inactive: 1.02.

Regarding `C[C@@H]1CCCCO[C@@H](CN(C)S(=O)(=O)c2ccc(F)cc2)[C@H](C)CN([C@@H](C)CO)C(=O)c2cc(NC(=O)NC3CCCCC3)ccc2O1`, the relative growth is inactive: 1.01.

Take `C[C@@H]1CN([C@@H](C)CO)C(=O)c2cc(NC(=O)Cc3ccccc3)ccc2O[C@@H](C)CCCCO[C@H]1CN(C)CC1CCCCC1`: the relative growth is inactive: 0.978.

As to `CCNC(=O)[C@H]1[C@H](CO)[C@H]2Cn3c(ccc(-c4ccccc4OC)c3=O)[C@H]2N1S(C)(=O)=O`, the relative growth is inactive: 1.03.

In the case of `O=C(O)CCC(=O)O.O=C(OC1CN2CCC1CC2)N1CCc2ccccc2C1c1ccccc1` (centres undefined), the relative growth is inactive: 1.02.

Consider `CN1C(=O)c2cc(NC(=O)c3ccno3)ccc2OC[C@H]2O[C@@H](CC(=O)NC3Cc4ccccc4C3)CC[C@@H]21`, for which the relative growth is inactive: 1.

Turning to `CCCNC(=O)N1C[C@@H](O)COC[C@@H]2O[C@H](CC(=O)NCCCN3CCOCC3)CC[C@H]21`, the relative growth was inactive: 0.987.

In the case of `C[C@H]1CN([C@@H](C)CO)C(=O)Cc2cc(NC(=O)C3CCCCC3)ccc2O[C@@H]1CN(C)S(C)(=O)=O`, the relative growth was inactive: 0.992.

Take `CO[C@H]1CN(C)C(=O)c2cc(NC(=O)CC(F)(F)F)ccc2OC[C@H](C)N(C(=O)C2CCOCC2)C[C@H]1C`: the relative growth is inactive: 0.99.

Consider `CCS(=O)(=O)N1CC[C@@H](O)[C@@H]1Cc1cnn(C)c1`, for which the relative growth is inactive: 0.987.

For the compound `CO[C@H]1O[C@H](CO)[C@@H](OC(=O)Nc2ccccc2)[C@@H]2OC(=O)[C@@H](Cc3ccc4ccccc4c3)C/C=C/C[C@H](Cc3ccc4ccccc4c3)C(=O)O[C@@H]12`, the relative growth was inactive: 1.

As for `COC(=O)CCCCCCC(=O)Nc1ccc([C@H]2O[C@H](CSc3nc(-c4ccccc4)c(-c4ccccc4)o3)C[C@H](c3ccc(NC(=O)CCCCCCC(=O)OC)cc3)O2)cc1`, the relative growth is inactive: 1.01.

In the case of `CCOCC(=O)NS(=O)(=O)c1ccccc1`, the relative growth was inactive: 0.996.

Consider `C[C@H](CO)N1C[C@H](C)[C@H](CN(C)Cc2ccc(Cl)c(Cl)c2)Oc2ccc(NS(=O)(=O)c3ccc(Cl)cc3)cc2C1=O`, for which the relative growth is inactive: 0.999.

As to `CC(C)N1C[C@H](C)[C@@H](CN(C)Cc2ccc(Oc3ccccc3)cc2)Oc2c(NC(=O)c3ccncc3)cccc2C1=O`, the relative growth is inactive: 1.03.

With `CO[C@H]1CN(C)C(=O)c2cc(NS(=O)(=O)c3cn(C)cn3)ccc2OC[C@@H](C)N(Cc2cccc(F)c2)C[C@H]1C`, the relative growth was inactive: 1.

Regarding `COc1cccc(S(=O)(=O)N(C)C[C@@H]2Oc3cc(C#CCC(C)C)ccc3S(=O)(=O)N([C@@H](C)CO)C[C@@H]2C)c1`, the relative growth is inactive: 1.01.

Consider `C[C@@H]1CCCCO[C@H](CN(C)C(=O)Nc2ccc(C(F)(F)F)cc2)[C@@H](C)CN([C@@H](C)CO)C(=O)c2cc(NS(=O)(=O)c3cn(C)cn3)ccc2O1`, for which the relative growth was inactive: 0.931.
